Results reported in the supplement of paper PMC8728848.
Some of the results follow.

Tests used:
Test in all cases: glycan array binding signal (z-score within array); higher = stronger binding
Details in all cases: glycan notation: IUPAC condensed, linker removed
Glc(a1-4)Glc = target: Glc(a1-4)Glc
How it was run: (§1)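 Glycan array data were curated from 3228 arrays in the Consortium for Functional Glycomics database and kept only where the protein sequence was available. Glycan names were converted to IUPAC-condensed notation, and columns mapping to the same glycan were averaged. The binding signal is a within-array Z-score, averaged across arrays of the same protein sequence at different concentrations or buffers and across linkers. Negative Z-scores can be read as non-binding.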

[1] = target: Glc(a1-4)Glc(a1-4)Glc(a1-4)Glc
How it was run: as §1

Glc(a1-6)Glc(a1-6)Glc = target: Glc(a1-6)Glc(a1-6)Glc
How it was run: as §1

[2] = target: Glc(a1-6)Glc(a1-6)Glc(a1-6)Glc
How it was run: as §1

Glc(b1-4)Glc = target: Glc(b1-4)Glc
How it was run: as §1

Glc(b1-6)Glc = target: Glc(b1-6)Glc
How it was run: as §1

GlcA(b1-3)Gal = target: GlcA(b1-3)Gal
How it was run: as §1

GlcA(b1-3)GlcNAc = target: GlcA(b1-3)GlcNAc
How it was run: as §1

GlcA(b1-6)Gal = target: GlcA(b1-6)Gal
How it was run: as §1

[3] = target: GlcNAc(a1-3)Gal(b1-4)GlcNAc
How it was run: as §1

[4] = target: GlcNAc(a1-4)Gal(b1-3)GlcNAc
How it was run: as §1

[5] = target: GlcNAc(a1-4)Gal(b1-4)GalNAc
How it was run: as §1

[6] = target: GlcNAc(a1-4)Gal(b1-4)GlcNAc
How it was run: as §1

[7] = target: GlcNAc(a1-4)Gal(b1-4)GlcNAc(b1-3)Gal(b1-4)Glc
How it was run: as §1

[8] = target: GlcNAc(a1-4)Gal(b1-4)GlcNAc(b1-3)Gal(b1-4)GlcNAc
How it was run: as §1

[9] = target: GlcNAc(a1-4)Gal(b1-4)GlcNAc(b1-3)Gal(b1-4)GlcNAc(b1-3)Gal(b1-4)GlcNAc
How it was run: as §1

[10] = target: GlcNAc(a1-4)Gal(b1-4)GlcNAc(b1-3)Gal(b1-4)[Fuc(a1-3)]GlcNAc(b1-3)Gal(b1-4)[Fuc(a1-3)]GlcNAc
How it was run: as §1

[11] = target: GlcNAc(a1-6)Gal(b1-4)GlcNAc
How it was run: as §1

[12] = target: GlcNAc(b1-2)Gal(b1-3)GalNAc
How it was run: as §1

[13] = target: GlcNAc(b1-2)Man(a1-3)[GlcNAc(b1-2)Man(a1-6)]Man(b1-4)GlcNAc(b1-4)GlcNAc
How it was run: as §1

[14] = target: GlcNAc(b1-2)Man(a1-3)[GlcNAc(b1-2)Man(a1-6)]Man(b1-4)GlcNAc(b1-4)[Fuc(a1-6)]GlcNAc
How it was run: as §1

[15] = target: GlcNAc(b1-2)Man(a1-3)[GlcNAc(b1-4)][GlcNAc(b1-2)Man(a1-6)]Man(b1-4)GlcNAc(b1-4)GlcNAc
How it was run: as §1

[16] = target: GlcNAc(b1-2)[GlcNAc(b1-4)]Man(a1-3)[GlcNAc(b1-2)Man(a1-6)]Man(b1-4)GlcNAc(b1-4)GlcNAc
How it was run: as §1

[17] = target: GlcNAc(b1-2)[GlcNAc(b1-4)]Man(a1-3)[GlcNAc(b1-4)][GlcNAc(b1-2)Man(a1-6)]Man(b1-4)GlcNAc(b1-4)GlcNAc
How it was run: as §1

[18] = target: GlcNAc(b1-2)[GlcNAc(b1-4)]Man(a1-3)[GlcNAc(b1-4)][GlcNAc(b1-2)[GlcNAc(b1-6)]Man(a1-6)]Man(b1-4)GlcNAc(b1-4)GlcNAc
How it was run: as §1

[19] = target: GlcNAc(b1-2)[GlcNAc(b1-4)]Man(a1-3)[GlcNAc(b1-4)][GlcNAc(b1-2)[GlcNAc(b1-6)]Man(a1-6)]Man(b1-4)GlcNAc(b1-4)[Fuc(a1-6)]GlcNAc
How it was run: as §1

[20] = target: GlcNAc(b1-2)[GlcNAc(b1-6)]Man(a1-6)[GlcNAc(b1-2)Man(a1-3)]Man(b1-4)GlcNAc(b1-4)GlcNAc
How it was run: as §1

[21] = target: GlcNAc(b1-2)[GlcNAc(b1-6)]Man(a1-6)[GlcNAc(b1-2)Man(a1-3)]Man(b1-4)GlcNAc(b1-4)[Fuc(a1-6)]GlcNAc
How it was run: as §1

[22] = target: GlcNAc(b1-2)[GlcNAc(b1-6)]Man(a1-6)[GlcNAc(b1-2)Man(a1-3)][GlcNAc(b1-4)]Man(b1-4)GlcNAc(b1-4)GlcNAc
How it was run: as §1

GlcNAc(b1-3)Gal = target: GlcNAc(b1-3)Gal
How it was run: as §1

[23] = target: GlcNAc(b1-3)Gal(b1-3)GalNAc
How it was run: as §1

GlcNAc(b1-3)Gal(b1-4)Glc = target: GlcNAc(b1-3)Gal(b1-4)Glc
How it was run: as §1

[24] = target: GlcNAc(b1-3)Gal(b1-4)GlcNAc
How it was run: as §1

[25] = target: GlcNAc(b1-3)Gal(b1-4)GlcNAc(b1-3)Gal(b1-4)GlcNAc
How it was run: as §1

GlcNAc(b1-3)GalNAc = target: GlcNAc(b1-3)GalNAc
How it was run: as §1

GlcNAc(b1-3)Man = target: GlcNAc(b1-3)Man
How it was run: as §1

[26] = target: GlcNAc(b1-3)[GlcNAc(b1-4)][GlcNAc(b1-6)]GlcNAc
How it was run: as §1

[27] = target: GlcNAc(b1-3)[GlcNAc(b1-6)]Gal(b1-4)GlcNAc
How it was run: as §1

[28] = target: GlcNAc(b1-3)[GlcNAc(b1-6)]GalNAc
How it was run: as §1

[29] = target: GlcNAc(b1-4)Gal(b1-4)GlcNAc
How it was run: as §1

GlcNAc(b1-4)GlcNAc = target: GlcNAc(b1-4)GlcNAc
How it was run: as §1

[30] = target: GlcNAc(b1-4)GlcNAc(b1-4)GlcNAc
How it was run: as §1

[31] = target: GlcNAc(b1-4)GlcNAc(b1-4)GlcNAc(b1-4)GlcNAc(b1-4)GlcNAc
How it was run: as §1

B1: CIH1 (Colletotrichum higginsianum) (protein)
chain: LPQATPTTPTPTSASAAATISATSSPTCSPGPVIDYTVVSGDTLTIISQRFSSGICNIADASGITNPNFLSLGQVLQVPTYVCTPDNTSCLAKEGSDTCVEGGPATHTIVAGDTFFLVAQSLGLDVNALLAANEGVDPLLLQIGDVINIPVC
glycan array binding signal (z-score) (Glc(a1-4)Glc): -0.061 | glycan array binding signal (z-score) [1]: -0.047 | glycan array binding signal (z-score) (Glc(a1-6)Glc(a1-6)Glc): -0.015 | glycan array binding signal (z-score) [2]: -0.064 | glycan array binding signal (z-score) (Glc(b1-4)Glc): -0.046 | glycan array binding signal (z-score) (Glc(b1-6)Glc): -0.076 | glycan array binding signal (z-score) (GlcA(b1-3)Gal): -0.065 | glycan array binding signal (z-score) (GlcA(b1-3)GlcNAc): -0.086 | glycan array binding signal (z-score) (GlcA(b1-6)Gal): -0.073 | glycan array binding signal (z-score) [3]: -0.085 | glycan array binding signal (z-score) [4]: -0.069 | glycan array binding signal (z-score) [5]: -0.052 | glycan array binding signal (z-score) [6]: -0.026 | glycan array binding signal (z-score) [7]: -0.054 | glycan array binding signal (z-score) [8]: -0.069 | glycan array binding signal (z-score) [9]: -0.08 | glycan array binding signal (z-score) [10]: -0.024 | glycan array binding signal (z-score) [11]: -0.042 | glycan array binding signal (z-score) [12]: -0.056 | glycan array binding signal (z-score) [13]: -0.066 | glycan array binding signal (z-score) [14]: -0.06 | glycan array binding signal (z-score) [15]: -0.069 | glycan array binding signal (z-score) [16]: -0.068 | glycan array binding signal (z-score) [17]: -0.065 | glycan array binding signal (z-score) [18]: -0.045 | glycan array binding signal (z-score) [19]: -0.072 | glycan array binding signal (z-score) [20]: -0.013 | glycan array binding signal (z-score) [21]: -0.074 | glycan array binding signal (z-score) [22]: -0.072 | glycan array binding signal (z-score) (GlcNAc(b1-3)Gal): -0.064 | glycan array binding signal (z-score) [23]: -0.064 | glycan array binding signal (z-score) (GlcNAc(b1-3)Gal(b1-4)Glc): -0.077 | glycan array binding signal (z-score) [24]: -0.067 | glycan array binding signal (z-score) [25]: -0.076 | glycan array binding signal (z-score) (GlcNAc(b1-3)GalNAc): -0.063 | glycan array binding signal (z-score) (GlcNAc(b1-3)Man): -0.072 | glycan array binding signal (z-score) [26]: -0.085 | glycan array binding signal (z-score) [27]: -0.044 | glycan array binding signal (z-score) [28]: -0.066 | glycan array binding signal (z-score) [29]: -0.061 | glycan array binding signal (z-score) (GlcNAc(b1-4)GlcNAc): -0.09 | glycan array binding signal (z-score) [30]: 2.91 | glycan array binding signal (z-score) [31]: 9.28
